± gives the uncertainty stated by the source. The full ranking holds about 9,900 compounds; the median of “viability index relative to DMSO control” is about 1, and the lowest 2% start at about 0.85. The list shows a part of the results.

The test system of the assay is Plasmodium falciparum NF54 stage V gametocytes. The experiment in a line: viability index relative to DMSO control (fraction); higher = less gametocyte killing. Conditions: 2.5 µM, library set: Broad Institute DOS, incubation time: 72 h. The gist of the method:
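Viability index is the count of red-stained particles in a well divided by the plate mean of solvent-only wells. Particles of 20–70 µm2 were counted in one imaged field per well after one to two hours with 3 µl of 2.5 µM MitoTracker Red CMXRos and 0.13% saponin. Before staining, P. falciparum NF54 stage V gametocytes in serum-free medium (0.75% gametocytemia, 1.25% hematocrit, 10 µl, 1,536-well plates) were kept with compound at 2.5 µM for 72 hr at 37°C under low oxygen.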
On to `C[C@@H](NC(=O)C[C@@H]1CC[C@@H]2[C@H](COC[C@H](O)CN2C(=O)Nc2cccc(Cl)c2)O1)c1ccccc1`, for which the viability index was 1.1 ± 0.035.
`C[C@H]1CN([C@@H](C)CO)C(=O)c2cccc(NC(=O)Nc3ccc4c(c3)OCO4)c2O[C@@H]1CN(C)S(C)(=O)=O` registered a viability index of 1.05 ± 0.055.
`C[C@@H]1CN([C@@H](C)CO)S(=O)(=O)c2ccc(-c3ccc(F)cc3)cc2O[C@H]1CN(C)Cc1ccccc1C(=O)O` gave a viability index of 1.03 ± 0.077.
Molecule `COc1ccc(S(=O)(=O)N(C)C[C@@H]2Oc3ccc(NC(=O)Cc4cn(C)c5ccccc45)cc3C(=O)N([C@@H](C)CO)C[C@@H]2C)cc1` had a viability index of 0.947 ± 0.04.
The molecule `COc1cccc(S(=O)(=O)Nc2ccc3c(c2)C(=O)N(C)C[C@@H](OC)[C@H](C)CN(Cc2ccccc2F)[C@H](C)CO3)c1` came in with a viability index of 0.9171 ± 0.0073.
With `COCC(=O)N1CC[C@@H]2[C@H]1c1cc(-c3cccc(F)c3)ccc1N(C)[C@H]2CO` the figure was 0.9829 ± 0.0057.
The molecule `CC(C)NC(=O)N1[C@@H](CO)[C@@H]2c3ccccc3N(C)C[C@@H]21` returned a viability index of 1.01 ± 0.17.
`C[C@H]1CN([C@@H](C)CO)C(=O)CCCn2nncc2CO[C@@H]1CN(C)Cc1ccccc1C(=O)O` had a viability index of 1.04 ± 0.031.
As for `CN1CCN(C(=O)C[C@H]2CC[C@H]3[C@@H](COC[C@@H](O)CN3C(=O)Nc3ccc4c(c3)OCO4)O2)CC1`, the viability index stood at 1.06 ± 0.0044.
In turn, `C[C@H]1CN([C@@H](C)CO)C(=O)Cc2cc(NC(=O)C3CCCCC3)ccc2O[C@@H]1CN(C)Cc1ccc(Cl)c(Cl)c1` gave a viability index of 0.985 ± 0.021.
The result for `C[C@@H]1CN([C@@H](C)CO)C(=O)c2cc(C#CC3(O)CCCC3)cnc2O[C@@H]1CN(C)S(=O)(=O)c1cccc(F)c1` reads 1.06 ± 0.076; that for `C[C@@H]1CN([C@H](C)CO)C(=O)c2cccc(N(C)C)c2O[C@@H]1CN(C)Cc1ccncc1`, 1.06 ± 0.092.
For `COc1cccc(-c2ccc3c(c2)[C@@H]2[C@@H](CCN2C(=O)c2ccccn2)[C@H](CO)N3)c1`, the viability index is 0.887 ± 0.028.
The result for `CO[C@@H]1CN(C)C(=O)c2ccc(NS(C)(=O)=O)cc2OC[C@H](C)N(CC2CC2)C[C@@H]1C` reads 1.1 ± 0.054.
Regarding `O=C(NC[C@H]1[C@H](c2ccccc2)[C@@H](CO)N1Cc1ccccn1)C1CCCC1`, the viability index stood at 0.9562 ± 0.0077.
For the molecule `COc1cccc(-c2ccc([C@H]3[C@@H](CO)N4C(=O)CN(C(=O)c5cccnc5)C[C@H]34)cc2)c1`, the viability index is 0.918 ± 0.11.
The result for `Cc1noc(C)c1NC(=O)Nc1ccc2c(c1)C(=O)N([C@H](C)CO)C[C@@H](C)[C@H](CN(C)S(=O)(=O)c1cccs1)OCCCC[C@H](C)O2` reads 0.886 ± 0.1.
Molecule `C[C@@H]1CN([C@H](C)CO)C(=O)c2cc(N(C)C)ccc2O[C@@H](C)CCCCO[C@@H]1CN(C)Cc1ccc(C(=O)O)cc1` registered a viability index of 1.12 ± 0.053.
Consider `CCCC(=O)N1C[C@@H]2[C@H](c3ccccc31)[C@H](CO)N2Cc1cocn1`, for which the viability index came out at 1.02 ± 0.022.
For the molecule `CN(C)CC(=O)N1[C@@H](CO)[C@@H]2c3ccccc3N(C(=O)Cc3ccccc3)C[C@@H]21`, the viability index worked out at 0.956 ± 0.035.
With `O=C(N[C@@H]1CC[C@@H](CC(=O)N2CCOCC2)O[C@@H]1CO)c1cccc(F)c1`, the viability index is 0.966 ± 0.034.
For `O=C(C[C@@H]1CC[C@H]2[C@@H](COC[C@@H](O)CN2Cc2cc(F)cc(F)c2)O1)Nc1nccs1`, the viability index worked out at 1.09 ± 0.039.
The molecule `CCN(C[C@H]1[C@H](c2ccccc2)[C@@H](CO)N1C(=O)COC)S(C)(=O)=O` displayed a viability index of 0.981 ± 0.049.
The result for `C[C@H](CO)N1C[C@H](C)[C@H](CN(C)C(=O)Nc2cccc(C(F)(F)F)c2)OCc2ccccc2-c2ccccc2C1=O` reads 0.935 ± 0.014; that for `CO[C@@H](CN(C)C(=O)C1CCOCC1)[C@@H](C)CN([C@@H](C)CO)S(=O)(=O)c1ccccc1`, 1.08 ± 0.11; that for `C[C@@H]1CCCCO[C@@H](CN(C)CC2CC2)[C@@H](C)CN([C@H](C)CO)C(=O)c2cc(NC(=O)c3ccccc3)ccc2O1`, 1.14 ± 0.028.
The molecule `O=C(C[C@@H]1CC[C@@H]2[C@H](COC[C@@H](O)CN2C(=O)c2ccccc2F)O1)NCc1ccc(Cl)c(Cl)c1` had a viability index of 1.1043 ± 0.00085.
Regarding `COc1ccc(-c2ccc3n(c2=O)C[C@@H]2[C@@H](CO)[C@H](C(=O)N(C)C)[C@H]3N2Cc2cncnc2)cc1`, the viability index is 1.04 ± 0.017.
Take `COc1ccc(C(=O)Nc2ccc3c(c2)C(=O)N(C)[C@H]2CC[C@H](CC(=O)NCC4CC4)O[C@H]2CO3)cc1`: the viability index worked out at 0.823 ± 0.15.
In the case of `CCNC(=O)C[C@@H]1CC[C@@H]2[C@H](COC[C@H](O)CN2C(=O)C2CCCC2)O1`, the viability index came out at 1.03 ± 0.065.
`Cc1ccccc1-c1ccccc1[C@@H]1[C@H](C#N)N(C(=O)c2ccc(F)cc2)[C@H]1CO` yielded a viability index of 1.15 ± 0.041.
As to `CO[C@@H](CN(C)Cc1cc(F)ccc1F)[C@@H](C)CN([C@@H](C)CO)S(=O)(=O)c1ccc(C)cc1`, the viability index turned out to be 0.976 ± 0.0017.
As to `O=C(c1cccc(F)c1)N1CC2(C1)[C@H](c1ccccc1)[C@H](CO)N2Cc1ccccn1`, the viability index is 1.15 ± 0.073.
`C[C@H](CO)N1C[C@H](C)[C@H](CN(C)C(=O)CCC(F)(F)F)OCc2cnnn2CCCC1=O` came in with a viability index of 1.06 ± 0.047.
The molecule `CO[C@@H]1CC[C@@H]2CCOc3c(C#N)cccc3C(=O)N(C)CCCC(=O)N(C)C[C@@H]1O2` showed a viability index of 1.02 ± 0.031.
Molecule `CO[C@H]1CN(C)C(=O)c2cc(NS(C)(=O)=O)ccc2OC[C@H](C)N(C(=O)C2CCOCC2)C[C@H]1C` showed a viability index of 1.12 ± 0.048.
As for `CC(C)NC(=O)NCC[C@H]1CC[C@H](NS(=O)(=O)c2ccc(Oc3ccccc3)cc2)[C@@H](CO)O1`, the viability index stood at 1.09 ± 0.041.
Molecule `CN1C(=O)c2cc(NC(=O)Cc3cccs3)ccc2OC[C@@H]2O[C@H](CC(=O)NCCCN3CCOCC3)CC[C@H]21` had a viability index of 0.998 ± 0.074.
With `Cc1noc(C)c1NC(=O)Nc1ccc2c(c1)C(=O)N([C@@H](C)CO)C[C@H](C)[C@@H](CN(C)Cc1ccc3c(c1)OCO3)OCCCC[C@@H](C)O2` the figure was 1.13 ± 0.015; with `CN1C(=O)c2cc(NC(=O)c3cscn3)ccc2OC[C@H]2O[C@@H](CC(=O)N3CCOCC3)CC[C@H]21`, 1.11 ± 0.21; with `Cc1ccc(S(=O)(=O)N(C)C[C@@H]2OCCCC[C@H](C)Oc3ccc(NC(=O)c4ccncc4)cc3C(=O)N([C@@H](C)CO)C[C@H]2C)cc1`, 0.966 ± 0.073.
With `CO[C@@H](CN(C)Cc1nccs1)[C@H](C)CN([C@@H](C)CO)S(=O)(=O)c1ccc(F)cc1` the figure was 1.01 ± 0.078.
The molecule `CS(=O)(=O)N1[C@@H](C#N)[C@@H](c2ccc(-c3ccccc3F)cc2)[C@@H]1CO` displayed a viability index of 1.04 ± 0.03.
With `O=C(Nc1ccc(C(F)(F)F)cc1)N[C@@H]1C=C[C@@H](CC(=O)N2CCCCC2)O[C@H]1CO`, the viability index was 1.111 ± 0.008.

The values are drawn from the supplement of paper PMC4723716.
